# Experimental data reported in the RNAGym collection of RNA variant scans (doi:10.1093/nar/gkz1192).
# Read counts are not given, so values of variants with three or more changes are uncertain.
# B1: CPEB3 Ribozyme (parent)
# chain: UAACAGGGGGCCACAGCAGAAGCGUUCACGUCGCAGCCCCUGUCAGAUUCUGGUGAAUCUGCGAAUUCUGCUGUAUAUCUC
# Variants of: B1
# Assay: self-cleavage, relative activity (ratio to wild type); higher = more cleavage; in vitro, sequencing
# Outline: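 CPEB3 self-cleaving ribozyme mutant libraries were made by rounds of error-prone PCR, barcoded, and transcribed in vitro with T7 RNA polymerase for 5 hours at 37°C. Cleavage occurred during transcription and a 15 min DNase I step before EDTA stop. RNAs were reverse transcribed with template switching and Illumina-sequenced, with DNA sequencing mapping barcodes to variants. Relative activity is the variant's cleaved/total read fraction divided by wild type's (minimum 5 reads), averaged across three batches.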
row,Variant,self-cleavage
1,UAACAGGGGGCCACAGCAGAAGCGUUCACGUCGCAGCCCCUGUCAGAUUCUGGCGUAUCUGCGAAUUCUGCUGUACAUCCC,0.58
2,UAACAGGGGGCCACAGCAGAAGCGUUCACGUCGCAGCCCCUGUCAGAUUCUGGAGAAUCUGCGAAUUCAGCUGUUUAUCUC,0.57
3,UAACAGGGGGCCACAGCAGAAGCGUUCACGUCGCAGCCCCUGUCAGAUUCUGGCGAAUCGGCGAAUUCUGCUGUACAUCUC,0.32
4,UAACAGGGGGCCACAGCAGAAGCGUUCACGUCGCAGCCCCUGUCAGAUUCUGGCGGGUCUGCGAAUUCUGCUGUAUACCUC,0.18
5,UAACAGGGGGCCACAGCAGAAGCGUUCACGUCGCAGCCCCUGUCAGAUUCUGGAGAAUCUGCGAAAUCUGCUGUAUAUCCC,0.63
6,UAACAGGGGGCCACAGCAGAAGCGUUCACGUCGCAGCCCCUGUCAGAUUCUGGCGAAUCAGCGAAUUCCGCUGUCUAUCUC,0.19
7,UAACAGGGGGCCACAGCAGAAGCGUUCACGUCGCAGCCCCUGUCAGAUUCUGGCGAAUCUGCGAUUUUUGCUGUAUAUCUC,0.18
8,UAACAGGGGGCCACAGCAGAAGCGUUCACGUCGCAGCCCCUGUCAGAUUCUGGCGAAUCAGUGAAUUCUGCUGUAUAUCUC,0.48
9,UAACAGGGGGCCACAGCAGAAGCGUUCACGUCGCAGCCCCUGUCAGAUUCUGGAGAACCUGCGAAUUCUGUUGUUUACCUC,0.59
10,UAACAGGGGGCCACAGCAGAAGCGUUCACGUCGCAGCCCCUGUCAGAUUCUGGCGAAACUGCGAGUUCAGCUGUAUAUCUC,0.17
11,UAACAGGGGGCCACAGCAGAAGCGUUCACGUCGCAGCCCCUGUCAGAUUCUGGCGAAUCUGCGAGUUCUGCUGCAUUUCUC,0.77
12,UAACAGGGGGCCACAGCAGAAGCGUUCACGUCGCAGCCCCUGUCAGAUUCUGGCGAAUCUGCGAGUCCUGCUGUAUAUCUC,0.31
13,UAACAGGGGGCCACAGCAGAAGCGUUCACGUCGCAGCCCCUGUCAGAUUCUGGCGGAUCUGCGAAUUCUGCUGUAAGUCUC,0.39
14,UAACAGGGGGCCACAGCAGAAGCGUUCACGUCGCAGCCCCUGUCAGAUUCUGGCGAAUCUGCGGAUUCUGCUAUAUAUCUC,1.29
15,UAACAGGGGGCCACAGCAGAAGCGUUCACGUCGCAGCCCCUGUCAGAUUCUGGCGAAUCUGCGAAUUCCGCCGUAUAUCAC,0.48
16,UAACAGGGGGCCACAGCAGAAGCGUUCACGUCGCAGCCCCUGUCAGAUUCUGGAGAAUCUGCGAACUCUGCAGUAUAUCUC,0.78
17,UAACAGGGGGCCACAGCAGAAGCGUUCACGUCGCAGCCCCUGUCAGAUUCUGGCGAAUCUGCGAAUUCUGCUGAAUGUCUC,1.35
18,UAACAGGGGGCCACAGCAGAAGCGUUCACGUCGCAGCCCCUGUCAGAUUCUGGCGAAUCUGCGAGUUGUGCUGUAUACCUC,0.2
19,UAACAGGGGGCCACAGCAGAAGCGUUCACGUCGCAGCCCCUGUCAGAUUCUGGCGAAUCUGCGAAUUCCGCUGUAUAUCAC,0.82
20,UAACAGGGGGCCACAGCAGAAGCGUUCACGUCGCAGCCCCUGUCAGAUUCUGGCGAAUCUGCGAACUCUACUGUAUACCUC,0.2
21,UAACAGGGGGCCACAGCAGAAGCGUUCACGUCGCAGCCCCUGUCAGAUUCUGGAGAAUCUCCGGAUUCUGCCGUAUAUCUC,0.18
22,UAACAGGGGGCCACAGCAGAAGCGUUCACGUCGCAGCCCCUGUCAGAUUCUGGCGAAUCUGCGAAUUCUGCUGUAUUCCAC,1.2
23,UAACAGGGGGCCACAGCAGAAGCGUUCACGUCGCAGCCCCUGUCAGAUUCUGGAGAAUCUGCGAUUUCUGCUGUAUAUCCC,0.18

row,Variant,self-cleavage
1,UAACAGGGGGCCACAGCAGAAGCGUUCACGUCGCAGCCCCUGUCAGAUUCUGGAGAAUCCGCGCAUUCUGCUGUAUAUCUC,0.19
2,UAACAGGGGGCCACAGCAGAAGCGUUCACGUCGCAGCCCCUGUCAGAUUCUGGAGAAUCUGCGAGUUCUGCAGUAUAUCUC,0.42
3,UAACAGGGGGCCACAGCAGAAGCGUUCACGUCGCAGCCCCUGUCAGAUUCUGGCGAAUCCGCGAAUUCUGCCGUAUAUCUC,0.3
4,UAACAGGGGGCCACAGCAGAAGCGUUCACGUCGCAGCCCCUGUCAGAUUCUGGCGAAUCUGCGAAUUAUGGUGUAUAUCUC,0.15
5,UAACAGGGGGCCACAGCAGAAGCGUUCACGUCGCAGCCCCUGUCAGAUUCUGGCGAAUCCGCGAAUUCUGCUGUAUAUAUC,0.78
6,UAACAGGGGGCCACAGCAGAAGCGUUCACGUCGCAGCCCCUGUCAGAUUCUGGCGAAUCUGCCAAUUCUGGCGUAUAUCCC,0.22
7,UAACAGGGGGCCACAGCAGAAGCGUUCACGUCGCAGCCCCUGUCAGAUUCUGGCGAUUCUGUGUAUUCUGCUGUAUUUCUC,0.05
8,UAACAGGGGGCCACAGCAGAAGCGUUCACGUCGCAGCCCCUGUCAGAUUCUGGCGAAUCCGCGAAUUCUGCUGUAUACCUC,0.35
9,UAACAGGGGGCCACAGCAGAAGCGUUCACGUCGCAGCCCCUGUCAGAUUCUGGCGAAUCUGCGAAUCCUGCUAUAUACCUC,0.13
10,UAACAGGGGGCCACAGCAGAAGCGUUCACGUCGCAGCCCCUGUCAGAUUCUGGCGAAACUGCGAAUUCUGCUGAAUAUCUC,0.5
11,UAACAGGGGGCCACAGCAGAAGCGUUCACGUCGCAGCCCCUGUCAGAUUCUGGCGAACCUGCGAAUCCUGCUGUAUAUCCC,0.42
12,UAACAGGGGGCCACAGCAGAAGCGUUCACGUCGCAGCCCCUGUCAGAUUCUGGCGAAUCGGCGAAUUCUGCUGAAUAACUC,0.71
13,UAACAGGGGGCCACAGCAGAAGCGUUCACGUCGCAGCCCCUGUCAGAUUCUGGAGAAUCUUGGAAUCCUGCUGUAUAUCUC,0.61
14,UAACAGGGGGCCACAGCAGAAGCGUUCACGUCGCAGCCCCUGUCAGAUUCUGGCGAAUCUGCGAAUUAAGCUGUAUAUCUC,0.26
15,UAACAGGGGGCCACAGCAGAAGCGUUCACGUCGCAGCCCCUGUCAGAUUCUGGCGCAUCUGCGAAUUCUGCUGUACAUCUC,0.45
16,UAACAGGGGGCCACAGCAGAAGCGUUCACGUCGCAGCCCCUGUCAGAUUCUGGCGAAUCUGAGAAUUCUGCUGUAUAUCAC,0.16
17,UAACAGGGGGCCACAGCAGAAGCGUUCACGUCGCAGCCCCUGUCAGAUUCUGGCGAAUCUGCGAAUUCUGCUGUUUAACUC,0.88
18,UAACAGGGGGCCACAGCAGAAGCGUUCACGUCGCAGCCCCUGUCAGAUUCUGGCGAUUCCGCGAAUUCCGCUGUAUAUCUC,0.18
19,UAACAGGGGGCCACAGCAGAAGCGUUCACGUCGCAGCCCCUGUCAGAUUCUGGAGAAUCUGCGAACUCUGCUAUAUAUCUC,1.14
20,UAACAGGGGGCCACAGCAGAAGCGUUCACGUCGCAGCCCCUGUCAGAUUCUGGCGAAUCUGCGAACUCUGCUGCAUGUCUC,0.33
21,UAACAGGGGGCCACAGCAGAAGCGUUCACGUCGCAGCCCCUGUCAGAUUCUGGCGAGUCUGCGAAUUCUGCCGUAUAUCUC,0.81
22,UAACAGGGGGCCACAGCAGAAGCGUUCACGUCGCAGCCCCUGUCAGAUUCUGGCGAGUCUGCGAAUUCUGCAGUAUAUCUC,0.69
23,UAACAGGGGGCCACAGCAGAAGCGUUCACGUCGCAGCCCCUGUCAGAUUCUGGAGAAUCUGCGAGAUCUGCUGUAUAUCUC,0.19

row,Variant,self-cleavage
1,UAACAGGGGGCCACAGCAGAAGCGUUCACGUCGCAGCCCCUGUCAGAUUCUGGCGAAUCUGAGGAUUCUGCUGUAUAUCUC,0.6
2,UAACAGGGGGCCACAGCAGAAGCGUUCACGUCGCAGCCCCUGUCAGAUUCUGGAGUAUCUGCGAAUUCUGCUGUAAAUCUC,0.6
3,UAACAGGGGGCCACAGCAGAAGCGUUCACGUCGCAGCCCCUGUCAGAUUCUGGCGAACCUGCGAAUUCUGCAGUAUAUCUC,0.17
4,UAACAGGGGGCCACAGCAGAAGCGUUCACGUCGCAGCCCCUGUCAGAUUCUGGCGCAUCUGCGGAUUCUGCUGUAUAUCUC,0.11
5,UAACAGGGGGCCACAGCAGAAGCGUUCACGUCGCAGCCCCUGUCAGAUUCUGGAGUAUCUGCGAAUUCUGCUGUAUUUCUC,0.99
6,UAACAGGGGGCCACAGCAGAAGCGUUCACGUCGCAGCCCCUGUCAGAUUCUGGCGAGUCUGCGAAUACUGCUGUAUAUCUC,0.29
7,UAACAGGGGGCCACAGCAGAAGCGUUCACGUCGCAGCCCCUGUCAGAUUCUGGCGAAUCUGCGAAUUAUGCUGUAUAUCCC,0.41
8,UAACAGGGGGCCACAGCAGAAGCGUUCACGUCGCAGCCCCUGUCAGAUUCUGGAGAAUCUGCGAAUUCUGUUGUAUACCUC,0.7
9,UAACAGGGGGCCACAGCAGAAGCGUUCACGUCGCAGCCCCUGUCAGAUUCUGGCGAAUCUGCGAAUACUGCUGUAUUUCUC,0.52
10,UAACAGGGGGCCACAGCAGAAGCGUUCACGUCGCAGCCCCUGUCAGAUUCUGGAGAAUCUGCGAAUCCUGCUGCAUAUCUC,0.51
11,UAACAGGGGGCCACAGCAGAAGCGUUCACGUCGCAGCCCCUGUCAGAUUCUGGAGAACCUGCGAACUCCGCUGGAUAUCUC,0.36
12,UAACAGGGGGCCACAGCAGAAGCGUUCACGUCGCAGCCCCUGUCAGAUUCUGGCGAAUCAGCGAGUUCUGCUGUAUAUCCC,0.3
13,UAACAGGGGGCCACAGCAGAAGCGUUCACGUCGCAGCCCCUGUCAGAUUCUGGCGAAUCUGCGAAUCCUGCCGUGUAUCUC,0.18
14,UAACAGGGGGCCACAGCAGAAGCGUUCACGUCGCAGCCCCUGUCAGAUUCUGGCGAGUCUGCGAACUCUGCUGUAUAUCUC,0.13
15,UAACAGGGGGCCACAGCAGAAGCGUUCACGUCGCAGCCCCUGUCAGAUUCUGGCGAAUCUGCGUAUUCUGCCGUAUAUCUC,0.42
16,UAACAGGGGGCCACAGCAGAAGCGUUCACGUCGCAGCCCCUGUCAGAUUCUGGCGAAACUGCGGAUUCUGCUGUAUGUCUC,0.19
17,UAACAGGGGGCCACAGCAGAAGCGUUCACGUCGCAGCCCCUGUCAGAUUCUGGAGAAUCUGCGAACUCUGAUGUAUACCUC,0.46
18,UAACAGGGGGCCACAGCAGAAGCGUUCACGUCGCAGCCCCUGUCAGAUUCUGGCGAAUCUGCGUACUCUGCUGUAUAUCUC,0.25
19,UAACAGGGGGCCACAGCAGAAGCGUUCACGUCGCAGCCCCUGUCAGAUUCUGGCGAAUCUGCGAUUUCUGUUGUAUAUCUC,0.18
20,UAACAGGGGGCCACAGCAGAAGCGUUCACGUCGCAGCCCCUGUCAGAUUCUGGAGAGUCUGCGAAUUCAGCUGUAUAUCUC,0.45
21,UAACAGGGGGCCACAGCAGAAGCGUUCACGUCGCAGCCCCUGUCAGAUUCUGGCGAACAUGCGAAUUAUGCUGUAUAUCUC,0.3
22,UAACAGGGGGCCACAGCAGAAGCGUUCACGUCGCAGCCCCUGUCAGAUUCUGGCGAAUCUGCGGAUUCUGCUGUAUGUCUC,0.59
